# Assay results: PubChem BioAssay AID588591 (National Center for Advancing Translational Sciences (NCATS), 2011)
# “And” between values parts separate entries of the source, which are not always exact repeats. Equal values may be shown once. About 4,700 (1.2%) of roughly 390,000 compounds were called active. The shares of active, inactive and inconclusive entries below differ from those in the screen. Calls come from the whole dose curve; as a rule, active = well fitted inhibition curve with a large enough effect; inconclusive = small, poorly fitted or top-dose-only effect, or another doubt; inactive = no such curve, though single readings can be large or run the other way. Potencies beside an inconclusive call are fits to weak or partial responses and may not hold up.
# Target: DNA polymerase eta (Homo sapiens) (UniProt Q9Y253)
# Assay: qHTS for Inhibitors of Polymerase Eta
# Conditions: recombinant Pol eta, fluorescent DNA replication assay; series mostly up to 114 µM
# Procedure, shortened: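 Fluorescent replication assay: 50 nM final substrate added after a 15 min room-temperature compound preincubation with 10 nM enzyme. Signal taken at 0 min and again at 10 min.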
# Potency is the fitted concentration of half-maximal effect; tags give direction and shape of the fitted curve.
# UniProt Q9Y253, sequence (Q9Y253 whole entry, looked up): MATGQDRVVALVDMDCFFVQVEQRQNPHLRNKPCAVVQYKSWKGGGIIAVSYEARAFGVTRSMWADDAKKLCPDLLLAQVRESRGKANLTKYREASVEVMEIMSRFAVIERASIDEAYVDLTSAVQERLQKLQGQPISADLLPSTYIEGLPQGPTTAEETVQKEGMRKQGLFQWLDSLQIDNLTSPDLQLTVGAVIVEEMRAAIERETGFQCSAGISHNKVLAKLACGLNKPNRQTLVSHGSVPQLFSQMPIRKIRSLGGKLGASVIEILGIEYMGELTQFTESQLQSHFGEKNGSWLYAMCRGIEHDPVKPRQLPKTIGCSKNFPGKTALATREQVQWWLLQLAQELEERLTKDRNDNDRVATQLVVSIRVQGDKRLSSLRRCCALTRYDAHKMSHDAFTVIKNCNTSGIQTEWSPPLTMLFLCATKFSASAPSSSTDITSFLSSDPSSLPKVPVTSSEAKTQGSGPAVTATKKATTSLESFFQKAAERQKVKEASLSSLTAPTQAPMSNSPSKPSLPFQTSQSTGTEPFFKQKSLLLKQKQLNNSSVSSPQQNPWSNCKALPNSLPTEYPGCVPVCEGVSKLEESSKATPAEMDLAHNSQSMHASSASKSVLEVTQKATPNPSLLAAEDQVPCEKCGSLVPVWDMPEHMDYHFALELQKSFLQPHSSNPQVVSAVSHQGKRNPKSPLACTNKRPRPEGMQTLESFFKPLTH
row,SMILES,Potency
1,CCOc1ccc(C(=O)C(CN2CCOCC2)c2ccccc2)cc1 (stereo unspecified),inactive
2,CCN(c1ccccc1)S(=O)(=O)c1cc(C(=O)OC(C)C(=O)Nc2ccc3c(c2)OCCO3)ccc1C (stereo unspecified),"inconclusive: 35.5 µM [inhibitor, partial curve]"
3,Cc1cc(C(=O)Nc2sccc2C(N)=O)c(C)o1,"inconclusive: 28.2 µM [inhibitor, full curve]"
4,O=C1c2cc3c(cc2CCC1c1ccc2c(c1)OCO2)OCO3 (stereo unspecified),"inconclusive: 20 µM [inhibitor, full curve]"
5,COc1ccc(C)cc1Nc1nc(N)c2cc(OC)c(OC)cc2n1,"inconclusive: 79.4 µM [inhibitor, partial curve] and inconclusive: 50.1 µM [inhibitor, partial curve, poor fit]"
6,N#Cc1ccc(-c2ccc(OCC(=O)NN=Cc3ccncc3)cc2)cc1,"inconclusive: 31.6 µM [inhibitor, partial curve, poor fit]"
7,CC(=O)Nc1ccc(NC(=O)CSc2nc(N)c(NC(=O)c3ccco3)c(=O)[nH]2)cc1,"inconclusive: 25.1 µM [inhibitor, single point]"
8,CCN1CCN(c2cc(C)c3cc(NC(=O)c4ccc(OC)c(OC)c4)ccc3n2)CC1,"inconclusive: 44.7 µM [inhibitor, partial curve, poor fit]"
9,NNC(=S)NCc1ccco1,inactive
10,C/C(=N\NC(=O)c1cc(O)ccc1O)c1cccc(NC(=O)c2cccc(Cl)c2)c1,"inconclusive: 79.4 µM [inhibitor, partial curve]"
11,COc1ccc(CCC(=O)OCC(=O)Nc2ccccc2)cc1,"inconclusive: 17.8 µM [inhibitor, partial curve, poor fit]"
12,O=C(Cc1ccc(S(=O)(=O)N2CCCCC2)s1)Nc1cccc2ccccc12,inactive
13,COc1cc(/C=C2/SC(=S)N(Cc3ccccc3)C2=O)cc(Cl)c1O,"inconclusive: 79.4 µM [inhibitor, partial curve, poor fit]"
14,O=C(CSc1oc(-c2ccco2)nc1S(=O)(=O)c1ccc(Cl)cc1)Nc1ccc(F)cc1,inactive
15,COc1ccc(C(=O)COC(=O)/C=C/c2ccco2)cc1F,"inconclusive: 20 µM [inhibitor, full curve, poor fit]"
16,c1ccc(OCc2nn3c(Cn4nnc5ccccc54)nnc3s2)cc1,"inconclusive: 14.1 µM [inhibitor, full curve, poor fit]"
17,Cc1c(C)n(Cc2ccc(F)cc2)c2ccc(C(=O)N3CCN(c4ccccn4)CC3)cc12,"inconclusive: 79.4 µM [inhibitor, partial curve, poor fit]"
18,CS(=O)(=O)c1ccc(C(=O)OC2CCOC2=O)cc1[N+](=O)[O-] (stereo unspecified),active: 20 µM
19,Nc1ccc(-c2c3ccc(=O)cc-3oc3cc(O)ccc23)cc1C(=O)O,active: 20 µM
20,CCc1ccccc1NC(=O)CSc1nc2c(c(=O)[nH]1)CN(Cc1ccccc1OC)CC2,inactive
21,COc1ccc(-n2ccnc2SCC(=O)NO)cc1,"inconclusive: 89.1 µM [inhibitor, partial curve, poor fit]"
22,CCOC(=O)C(C)On1c(-c2ccc(Cl)cc2)nc2ccc([N+](=O)[O-])cc21 (stereo unspecified),"inconclusive: 39.8 µM [inhibitor, partial curve, poor fit]"

row,SMILES,Potency
1,CCC(=O)OC1(C)C(=O)C=C2C=C(c3ccc(C#N)cc3)OC=C2C1=O (stereo unspecified),active: 44.7 µM
2,Cc1oc2c(c1C(=O)c1ccccc1)C(=O)C(=O)c1ccccc1-2,active: 20 µM
3,O=C(COc1ccccc1[N+](=O)[O-])Nc1cccc(C(=O)Nc2ccccc2C(=O)O)c1,"inconclusive: 56.2 µM [inhibitor, partial curve, poor fit]"
4,Cc1oc(C)c(C(=O)O)c1COc1ccc(C(=O)O)cc1,"inconclusive: 31.6 µM [inhibitor, single point]"
5,O=C(N/N=C/c1ccc([N+](=O)[O-])o1)c1cc(-c2ccncc2)nc2ccccc12,active: 89.1 µM
6,Cc1cc(NC(=O)c2cc(S(=O)(=O)N3CCCCC3)ccc2C)no1,active: 22.4 µM
7,Oc1ccc(-c2nc(-c3ccc(O)c(O)c3)cs2)cc1,"inconclusive: 15.8 µM [inhibitor, full curve, poor fit]"
8,COc1cc(Br)cc(C(=O)N2CCc3ccccc32)c1OC,inactive
9,CC(Sc1nc2ccccc2n1C)C(=O)NC(c1ccccc1)c1ccccc1 (stereo unspecified),"inconclusive: 31.6 µM [inhibitor, partial curve, poor fit]"
10,COc1cc(/C=C(/C#N)c2nc3ccccc3[nH]2)ccc1Oc1ncccc1[N+](=O)[O-],"inconclusive: 50.1 µM [inhibitor, partial curve]"
11,O=C(CCNC(=O)c1ccccc1)NN=Cc1ccc(Br)o1,active: 56.2 µM
12,Oc1ccc(/C=N/Nc2nn3cnnc3c3ccccc23)cc1,"inconclusive: 44.7 µM [inhibitor, partial curve]"
13,CCOCCCNC(=O)c1c[nH]c2ccc(OCC)cc2c1=O,"inconclusive: 79.4 µM [inhibitor, partial curve, poor fit]"
14,CCOC(=O)c1c(NC(=O)COC(=O)Cn2c(C(F)(F)F)nc3ccccc32)sc(C)c1C,"inconclusive: 8.91 µM [inhibitor, partial curve, poor fit]"
15,O=C(OCc1cn([C@@H]2CN(C(=O)C3CCCCC3)[C@@H](c3ccc(Cl)cc3)C[C@H]2O)nn1)c1ccccc1,"inconclusive: 79.4 µM [inhibitor, partial curve, poor fit]"
16,COc1cc(/C=C2\C(=O)N(c3cccc(C(=O)O)c3)N=C2C)ccc1OCc1ccccc1,active: 31.6 µM
17,O=C(CCN1CCN(c2ccccc2)CC1)N/N=C/c1ccc([N+](=O)[O-])o1,"inconclusive: 79.4 µM [inhibitor, partial curve, poor fit]"
18,CCOc1ccc(C(C)=O)cc1Cn1nc(C(=O)O)c2ccccc2c1=O,"inconclusive: 22.4 µM [inhibitor, single point]"
19,CC(NC1=CC(=O)c2cccnc2C1=O)C(O)c1ccccc1 (stereo unspecified),active: 15.8 µM
20,CCO/C=C1/C(=O)N(C)C(=O)c2cc(OC)ccc21,"inconclusive: 14.1 µM [inhibitor, partial curve]"
21,CC(/C=C/c1ccco1)=N/NC(=O)Cc1cccs1,active: 17.8 µM
22,COc1ccccc1C1CC(=O)Oc2c(C(C)C)ccc(C)c21 (stereo unspecified),"inconclusive: 50.1 µM [inhibitor, partial curve]"

row,SMILES,Potency
1,O=S(=O)(c1ccccc1)N1CCN(S(=O)(=O)c2ccccc2)c2ccccc21,"inconclusive: 39.8 µM [inhibitor, partial curve, poor fit]"
2,CCOc1cc(/C=C\c2[nH]c(=O)[nH]c(=O)c2[N+](=O)[O-])ccc1OC(C)CC (stereo unspecified),"inconclusive: 89.1 µM [inhibitor, partial curve, poor fit]"
3,COC(=O)c1cccc(NC(=O)CSc2nnc(C3CC3)n2C)c1,"inconclusive: 89.1 µM [inhibitor, partial curve, poor fit]"
4,CCOc1ccc(CCNC(=O)C2CCN(c3nnc(-n4cccc4)s3)CC2)cc1OCC,"inconclusive: 25.1 µM [inhibitor, single point]"
5,Cc1ccc2nc(CN3CCN(C(=O)Nc4cccc(C)c4C)CC3)oc2c1,inactive
6,CCOC(=O)c1cc(-c2ccc(/C=C3/C(=O)N(c4ccc(C(=O)O)cc4)N=C3C)o2)ccc1Cl,active: 17.8 µM
7,COc1ccccc1C(NC(C)=O)c1cc(Cl)c2cccnc2c1O (stereo unspecified),inactive
8,CCC1CN(C(=O)N2CCC(C(=O)N(C)Cc3ccccc3)CC2)c2ccccc2O1 (stereo unspecified),inactive
9,COC(=O)c1ccc(CSc2nnc(-c3ccc4c(c3)OCO4)n2-c2ccccc2)o1,"inconclusive: 39.8 µM [inhibitor, partial curve, poor fit]"
10,Cc1ccc(NC(=O)c2ccc(CNS(=O)(=O)c3cccc(C(F)(F)F)c3)cc2)cc1,"inconclusive: 15.8 µM [inhibitor, partial curve]"
11,O=c1c(-c2ccccc2)c(O)nc(SCCN2CCOCC2)n1-c1ccccc1,"inconclusive: 50.1 µM [inhibitor, partial curve, poor fit]"
12,CCC1CN(C(=O)Nc2ccccc2C(F)(F)F)c2ccccc2S1 (stereo unspecified),inactive
13,CS(=O)(=O)N(CC(=O)NCC1CCCO1)c1cccc(Cl)c1 (stereo unspecified),inactive
14,COc1ccc(C(=O)c2cn(CC(=O)Nc3ccc4c(c3)OCO4)c3ccc(OC)cc3c2=O)cc1,"inconclusive: 56.2 µM [inhibitor, partial curve, poor fit]"
15,CCC(c1ccc(O)c(O)c1)C(CC)c1ccc(O)c(O)c1 (stereo unspecified),active: 79.4 µM
16,O=C(O)CN1C(=O)c2ccc(Oc3ccc4c(c3)C(=O)N(CC(=O)O)C4=O)cc2C1=O,active: 31.6 µM
17,O=C(O)c1cccc(Cn2c(Cl)c(/C=N/NC(=O)c3cc4ccccc4cc3O)sc2=O)c1,active: 6.31 µM
18,Oc1ccc(/C=N/Nc2cc(N3CCOCC3)nc(N3CCOCC3)n2)cc1O,"inconclusive: 10 µM [inhibitor, full curve, poor fit]"
19,CC(=O)Nc1c(Cl)cnn(-c2ccccc2)c1=O,inactive
20,Nc1cc(-c2nc3ncccc3o2)ccc1Cl,"inconclusive: 10 µM [inhibitor, partial curve, poor fit]"
21,CCn1c(O)c(C=C2N=c3ccccc3=N2)sc1=S,"inconclusive: 22.4 µM [inhibitor, partial curve, poor fit]"
22,COc1cc2nc(N3CCNCC3)nc(N)c2cc1OC,"inconclusive: 56.2 µM [inhibitor, partial curve, poor fit]"
